Where “and” joins values, the source holds several entries; their conditions need not be identical. Identical values can stand only once. The inconclusive results got no clear call from the source; some entries with a clear call stand among them for comparison. Potencies of inconclusive entries are left out as doubtful fits. More than one record can exist for a structure, and the calls need not agree. Calls of active or inactive are those of the source. Calls follow the shape of the dose curve; as a rule, active = well fitted cell-killing curve with a large enough effect in the repeat runs; inconclusive = weak or mixed curves, or effect the other way; inactive = no such curve, though single readings can be large or run the other way. Bridge positions count the residues as written; N and C are the ends. Square brackets hold non-standard residues; d marks the D form. Peptide text beside a SMILES is read from it. * marks the point of attachment. X1 = CC[C@H](C)CCCCC(=O)*; Dab = NCC[C@H](N)C(=O)O
Assay: qHTS assay for identifying genotoxic compounds that show differential cytotoxicity against isogenic chicken DT40 cell lines with known DNA damage response pathways - Rev3 mutant cell line (AID 743014); also: nearly all actives have a fitted effect of over 55% in size
Details: chicken DT40 Rev3-/- viability, CellTiter-Glo, 40 h; activity, negative = cytotoxicity: at 68.4 µM (top of the series) unless noted
Source text: National Center for Advancing Translational Sciences [NCATS]
NIH Chemical Genomics Center [NCGC]
U.S. Environmental Protection Agency [EPA]
National Institutes of Environmental Health Sciences [NIEHS]
National Toxicology Program [NTP]
U.S. Food and Drug Administration [FDA]
DNA repair pathways play a critical role in cellular homeostasis by repairing DNA damage induced by endogenous processes and xenobiotics. Isogenic chicken DT40 cell lines deficient in different DNA repair pathways can be used to identify genotoxic compounds and aid in characterizing the nature of the DNA damage induced. Two DNA repair-deficient cell lines with disrupted genes, Rad54/Ku70 or Rev3, were used to screen the Tox21 10K compound library. Possible genotoxicity was based on the presence of a significant increase in cytotoxicity in one or more of the DNA repair-deficient cell lines compared to that observed in the parental DNA repair-proficient cell line. CellTiter Glo viability assay (Promega, Madison, WI) was used to measure cell viability in these cells after compound treatment. This assay includes the data from the Rev3 mutant cell line.
Tox21 Assay Protocol Summary:
300 DT40 mutant cells in 5 uL/well were dispensed into white, solid-bottom 1536-well plates using a Multidrop Combi (ThermoFisher Scientific, Waltham, MA) dispenser. After the assay plates were incubated at 37 C/5% CO2 for approximately 0.5 hour, 23 nL of compounds dissolved in DMSO, positive controls or DMSO only was transferred into the assay plate by a pintool work station (Kalypsys, San Diego, CA). The assay plates were incubated at 37 C/5% CO2 for 40 hours. After 5 uL per well of CellTiter-Glo reagent was added into each well of the assay plates, the plates were incubated for 30 min at room temperature and the luminescence intensity of the plates was measured using a ViewLux (PerkinElmer, Shelton, CT) plate reader.
% is scaled to controls: 0 for no effect and ±100 for the full control effect; potency is read from the fitted curve at half-maximal effect; tags tell the direction and shape of the fitted curve.

Structure (SMILES)	Potency	activity, negative = cytotoxicity
CCOC(=O)O[C@]1(C(=O)COC(=O)CC)CC[C@H]2[C@@H]3CCC4=CC(=O)C=C[C@]4(C)[C@H]3[C@@H](O)C[C@@]21C	inconclusive [cytotoxic, partial curve, poor fit]	–
Nc1nc2c(c(=O)[nH]1)N(C=O)C(CNc1ccc(C(=O)N[C@@H](CCC(=O)O)C(=O)O)cc1)CN2 (stereo not given in full)	inconclusive [rising, partial curve, poor fit]	–
CC(C)[C@@H](N)C(=O)O	inconclusive [rising, partial curve, poor fit]	–
Cc1cc(Nc2ccccc2C(=O)O)ccc1Cl	active: 29.8 µM	–
C=Cc1c(C)c2cc3nc(cc4[nH]c(cc5nc(cc1[nH]2)C(C)=C5CCC(=O)OC)c(CCC(=O)O)c4C)[C@@]1(C)C3=CC=C(C(=O)OC)[C@H]1C(=O)OC	inconclusive [cytotoxic]	–
CC1=C[C@H](O)CC(C)(C)[C@H]1/C=C/C(C)=C/C=C/C(C)=C/C=C/C=C(C)/C=C/C=C(C)/C=C/C1=C(C)C[C@@H](O)CC1(C)C	active: 18.8 µM	–
NC(N)=O	inactive and active: 17.2 µM	–
CCOC(=O)[C@H](CCc1ccccc1)N[C@H]1CS[C@H](c2cccs2)CN(CC(=O)O)C1=O	inconclusive [rising, partial curve, poor fit]	–
CN(C)C=Nc1c(I)cc(I)c(CCC(=O)O)c1I	inconclusive [rising, partial curve, poor fit]	–
CC[C@H](C)[C@@H]1NC(=O)[C@H](Cc2ccc(O)cc2)NC(=O)[C@@H](N)CSSC[C@@H](C(=O)N2CCC[C@H]2C(=O)N[C@@H](CC(C)C)C(=O)NCC(N)=O)NC(=O)[C@H](CC(N)=O)NC(=O)[C@H](CCC(N)=O)NC1=O	inconclusive [rising, partial curve, poor fit]	–
COC(=O)C(CN)c1c[nH]c2ccc(OC)cc12 (stereo not given)	inconclusive [rising, partial curve, poor fit]	–
CC(=O)N[C@@H]1C(O[C@H]2O[C@H](C(=O)O)C(O)[C@H](O)[C@H]2O)[C@H](O)[C@@H](CO)O[C@H]1O[C@@H]1C(C(=O)O)O[C@@H](O[C@H]2[C@H](O)[C@@H](CO)OC(O)[C@@H]2NC(C)=O)[C@H](O)[C@H]1O (stereo not given in full)	–	inactive: 16%
Cc1ccc(C(=O)c2ccc(CC(=O)O)n2C)cc1	–	inactive: 6.6% [at 31.4 µM]
CO[C@H]1C[C@H](O[C@H]2[C@H](C)[C@@H](O[C@@H]3O[C@H](C)C[C@H](N(C)C)[C@H]3OC(C)=O)[C@@H](C)C[C@]3(CO3)C(=O)[C@H](C)[C@@H](OC(C)=O)[C@@H](C)[C@@H](C)OC(=O)[C@@H]2C)O[C@@H](C)[C@@H]1OC(C)=O	inconclusive [rising, partial curve, poor fit]	–
CCCCCCCCCCCC(=O)OCC	–	inactive: -27.2%
CCCC[N+](C)(CCCC)CCCC	–	inactive: -28.1%
CNC1(C)C2CCC(C2)C1(C)C (stereo not given)	–	inactive: -19.5%
O=S1(=O)CCCC1	inconclusive [rising, partial curve, poor fit]	–
CC(C)CC(O)Cc1ccccc1 (stereo not given)	–	inactive: -2.89%
CC[C@H](C)CCCCC(=O)N[C@@H](CCN)C(=O)N[C@H](C(=O)N[C@@H](CCN)C(=O)N[C@H]1CCNC(=O)[C@@H]([C@H](C)O)NC(=O)[C@H](CCN)NC(=O)[C@H](CCN)NC(=O)[C@H](CC(C)C)NC(=O)[C@@H](CC(C)C)NC(=O)[C@H](CCN)NC1=O)[C@@H](C)O (X1-[Dab]T[Dab][Dab][Dab][dL]L[Dab][Dab][dT]; lactam 4-C)	inconclusive [rising, partial curve, poor fit]	–

Structure (SMILES)	Potency	activity, negative = cytotoxicity
CCOC(=N)CC(=O)OCC	inconclusive [cytotoxic, partial curve, poor fit]	–
O=CC1CC=CCC1 (stereo not given)	–	inactive: 0.637%
C=C(C)[C@@H]1CC=C(C)C(=O)C1	–	inactive: -10.6%
COc1nc(N)nc2c1ncn2[C@@H]1O[C@H](CO)[C@@H](O)[C@@H]1O	inconclusive [rising, partial curve, poor fit]	–
CCCCCCCCCCCCCCCC(=O)OC[C@@H](O)[C@H]1OC[C@H](O)[C@H]1O	inconclusive [rising, partial curve, poor fit]	–
C=C1CC[C@H](O)CC1=C/C=C1\CCC[C@]2(C)[C@@H]([C@H](C)CC[C@@H](O)C(C)(C)O)CC[C@@H]12	inconclusive [cytotoxic, partial curve]	–
CCCCC/C=C\CCC(=O)N[C@H]1[C@H](Oc2c3cc4cc2Oc2ccc(cc2Cl)[C@@H](O[C@@H]2O[C@H](CO)[C@@H](O)[C@H](O)[C@H]2NC(C)=O)[C@@H]2NC(=O)[C@H](NC(=O)[C@@H]4NC(=O)[C@H]4NC(=O)[C@@H](Cc5ccc(c(Cl)c5)O3)NC(=O)[C@H](N)c3ccc(O)c(c3)Oc3cc(O)cc4c3)c3ccc(O)c(c3)-c3c(O[C@H]4O[C@H](CO)[C@@H](O)[C@H](O)[C@@H]4O)cc(O)cc3[C@@H](C(=O)O)NC2=O)O[C@H](CO)[C@@H](O)[C@@H]1O	inconclusive [cytotoxic, single point]	–
Cc1ncc(C[n+]2csc(CCOP(=O)(O)O)c2C)c(N)n1	–	inactive: 2.25%
CCCN(CCC)C(=O)SCC	inconclusive [cytotoxic, partial curve] and inactive	–
NS(=O)(=O)Cc1noc2ccccc12	–	inactive: 0.573%
CCN(CC)CC	–	inactive: 13.4% [at 95 µM]
CCCOC(=O)c1ccccc1O	inconclusive [rising, partial curve, poor fit]	–
O=C1c2ccccc2C(=O)c2cc(O)ccc21	inconclusive [cytotoxic, partial curve, poor fit]	–
CCOC(=S)SSC(=S)OCC	inconclusive [cytotoxic, full curve]	–
NS(=O)(=O)c1ccc(Cl)c(S(N)(=O)=O)c1	–	inactive: 8.9%
NC(=O)Nc1ccc(Cl)cc1	–	inactive: -14.4%
O=C(Cn1cnnn1)N[C@@H]1C(=O)N2C(C(=O)O)=C(CSc3nncs3)CS[C@H]12	inactive	–
CCCCCCCCCCCC(=O)N(CCO)CCO	active: 26.6 µM	–
CC(=O)NC[C@H]1CN(c2ccc(N3CCOCC3)c(F)c2)C(=O)O1	inconclusive [cytotoxic, partial curve, poor fit]	–
N#Cc1ccc(C2CCCc3cncn32)cc1 (stereo not given)	–	inactive: 5.18% [at 31.4 µM]
